From PubChem BioAssay AID1745853 (National Center for Advancing Translational Sciences (NCATS), 2022)
The list shows a part of the results. These are further read-outs of the screen, such as a control signal, another cell line or another target. No call is given for them.

How the values were obtained:
Assay in all cases: Primary Screen for Target Class Profiling of Small Molecule Inhibitors of Methyltransferases
[1] = target: Glycine N-methyltransferase (Homo sapiens) (UniProt Q14749); settings: purified enzyme, MTase-Glo SAH luminescence; measured here: GNMT inhibition; at 40 µM; stronger effect = lower value
How it was run: (§1)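 Each enzyme was reacted with SAM and its substrate, with compounds tested once at 40 uM; SAH formed was read by MTase-Glo luminescence.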

[2] = target: Guanidinoacetate N-methyltransferase (Homo sapiens) (UniProt Q14353); settings: purified enzyme, MTase-Glo SAH luminescence; measured here: GAMT inhibition; at 40 µM; stronger effect = lower value
How it was run: as §1

[3] = target: Histamine N-methyltransferase (Homo sapiens) (UniProt P50135); settings: purified enzyme, MTase-Glo SAH luminescence; measured here: HNMT inhibition; at 40 µM; stronger effect = lower value
How it was run: as §1

[4] = target: Nicotinamide N-methyltransferase (Homo sapiens) (UniProt P40261); settings: purified enzyme, MTase-Glo SAH luminescence; measured here: NNMT inhibition; at 40 µM; stronger effect = lower value
How it was run: as §1

[5] = target: Phenylethanolamine N-methyltransferase (Homo sapiens) (UniProt P11086); settings: purified enzyme, MTase-Glo SAH luminescence; measured here: PNMT inhibition; at 40 µM; stronger effect = lower value
How it was run: as §1
% is set by controls: 0 for no effect and ±100 for the full control effect.

| Compound | activity change, negative = inhibition [1] | activity change, negative = inhibition [2] | activity change, negative = inhibition [3] | activity change, negative = inhibition [4] | activity change, negative = inhibition [5] |
| --- | --- | --- | --- | --- | --- |
| O=C(CCc1nnc2n(Cc3ccccc3Cl)c(=O)c3ccccc3n12)N1CC=C(c2ccccc2)CC1 | -8.09% | 6.23% | 0.922% | -4.01% | -1.99% |
| CN1c2cc(C(=O)NC3CCCCCC3)ccc2C(=O)N2CCCC21 (stereo not given) | -1.5% | -2.2% | -0.316% | -7.17% | 13.9% |
| Cc1nc(CCNc2cc(C3CC(O)C3)nc(N)n2)nc2c1CCC2 (stereo not given) | -4.97% | -4.81% | -5.35% | -10.3% | -7.19% |
| CCc1cnc(N2CCC(c3nc(COc4ccc(-n5cnnn5)cc4)cs3)CC2)nc1 | 1.88% | -3.07% | 11.4% | -22.5% | -3.24% |
| Cc1ccccc1N1CCN(S(=O)(=O)C[C@]23CC[C@H](C[C@@H]2NC(=O)[C@@H](N)CCS(C)(=O)=O)C3(C)C)CC1 | 1.52% | – | 11.6% | – | – |
| Cc1cc2c(cc3n2CC(C)(C(=O)NC2CCCCCCC2)N(CCN2CCCC2)C3=O)o1 (stereo not given) | 2.34% | 0.529% | -5.21% | 6.42% | 2.79% |
| C[C@@H]1O[C@@H](O[C@H]2[C@H](OC(=O)[C@]34CCC(C)(C)C[C@H]3C3=CCC5[C@@]6(C)C[C@H](O)[C@H](O[C@@H]7O[C@H](CO)[C@@H](O)[C@H](O)[C@H]7O)[C@@](C)(CO)C6[C@H](O)C[C@@]5(C)[C@]3(C)C[C@H]4O)OC[C@H](O)[C@@H]2O)[C@H](O)[C@H](O)[C@H]1O[C@@H]1OC[C@@H](O)[C@H](O[C@H]2OC[C@](O)(CO)[C@H]2O)[C@H]1O (stereo not given in full) | 6.1% | 4.04% | 11% | -11% | 8.97% |
| CC(O)/C=C/C1C(C)C(O[C@@H]2O[C@H](CO)[C@@H](O)[C@H](O)[C@H]2O)C(O)CC1(C)C (stereo not given in full) | 0.757% | 0.933% | 11% | -13.8% | -10.4% |
| CC1CCCCC1NC(=O)C1(C)Cn2c(nc3ccccc32)C(=O)N1Cc1ccc(F)cc1 (stereo not given) | -5.33% | 3.09% | -2.74% | -5.94% | -2.88% |
| Cc1nc([C@@H]2CN(C(=O)CCc3c[nH]c4ccccc34)C[C@H]2C(N)=O)n[nH]1 | -3.41% | -6.45% | -1.56% | -9.76% | -6.08% |
| NC[C@H](O)c1ccc(O)c(O)c1 | -55% | 4.54% | 3.12% | -13.5% | 24.2% |
| Cc1ccc(C)c(NC(=O)Cn2c(=O)oc3cc(S(=O)(=O)NCc4ccccc4)ccc32)c1 | 2.25% | 1.5% | 9.2% | 9.24% | 2.68% |
| O[C@@H]1C[C@@H](c2nc(-c3ccccn3)no2)N(Cc2cc3ccccc3o2)C1 | -8.69% | -9.55% | -4.15% | -22.4% | -10.2% |
| CC#CCn1c(N2CCC[C@@H](N)C2)nc2c1c(=O)n(Cc1nc(C)c3ccccc3n1)c(=O)n2C | – | 5.54% | – | -10.4% | 3.73% |
| CN(C)Cc1cc(CC2(NCc3cccc4c3OCO4)COC2)no1 | -6.78% | -4.67% | -1.2% | -15.4% | -5.12% |
| Cc1ccccc1CN1C(=O)c2cc3sccc3n2CC1(C)C(=O)NC1CCC(C)CC1 (stereo not given) | -1.13% | -0.076% | -6.22% | -5.58% | -8.48% |
| Cc1cc(=O)n(CC(=O)N2CCCC(C)(c3ccccc3)C2)nc1C (stereo not given) | -5.64% | -9.82% | -2.54% | -12.4% | -7.1% |
| CC1(C(=O)NC2CCCCC2)Cn2c(ccc2-c2ccco2)C(=O)N1CCN1CCOCC1 (stereo not given) | 0.411% | 2.45% | 6.85% | 5.74% | 1.18% |

| Compound | activity change, negative = inhibition [1] | activity change, negative = inhibition [2] | activity change, negative = inhibition [3] | activity change, negative = inhibition [4] | activity change, negative = inhibition [5] |
| --- | --- | --- | --- | --- | --- |
| CCCn1c(=O)c2ccc(Cl)cc2n2c(SCc3ccccc3)nnc12 | -2.12% | -0.985% | -1.35% | -4.32% | -4.54% |
| COc1ccc(-c2cc3n(n2)CC(C)(C(=O)NCc2ccccc2)N(c2cc(Cl)ccc2C)C3=O)cc1 (stereo not given) | 4.96% | 6.09% | 10.2% | 10.2% | 2.72% |
| O=c1cc(CN2CCCC(c3nccn3Cc3ccccc3)C2)[nH]c(=O)[nH]1 (stereo not given) | -7.02% | -4.98% | -19.5% | -5.9% | -5.86% |
| Cc1ccc(C(=O)Cn2nc3n(CC(C)C)c(=O)c4ccc(C(=O)NC(C)C)cc4n3c2=O)cc1 | 3.44% | 3.08% | 4.97% | -6.44% | 0.194% |
| COCCn1cnnc1C(C)NC(=O)CCc1nc(-c2ccccc2OC)no1 (stereo not given) | -2.56% | -3.77% | -0.859% | -7.58% | -3.31% |
| CC1(C(=O)NCc2ccccc2)Cn2nc(-c3ccccc3)cc2C(=O)N1CCc1ccc(Cl)cc1 (stereo not given) | 6.12% | 0.228% | 6.25% | 9.18% | 3.26% |
| CC(C)Oc1ccc(CNC(=O)c2cc3n(n2)CC(C)(C(=O)NC2CCCCC2)N(C)C3=O)cc1 (stereo not given) | -4.61% | -6.43% | 6.25% | -4.02% | -5.92% |
| COc1ccc(Oc2c(Cl)cnn(C3c4ccccc4-c4ccccc43)c2=O)cc1 | -3.55% | -27% | -2.58% | -32.9% | -4.22% |
| CN(CCCN1C(=O)c2cc3occc3n2CC1(C)C(=O)NC1CCCCCC1)C1CCCCC1 (stereo not given) | -10.1% | 1.31% | -9.65% | -1.01% | -6.86% |
| Cn1cncc1C(=O)N1CCC2(CC1)CNC(C(=O)O)C2 (stereo not given) | -0.747% | -4.6% | 0.346% | -5.57% | -0.155% |
| CC(C)CNC(=O)c1ccc2c(=O)n(C(C)C)c3nn(CC(=O)Nc4ccccc4)c(=O)n3c2c1 | 3.67% | 2.12% | 7.86% | 5.66% | 9.27% |
| CS(=O)(=O)c1ccc(OC[C@H]2C[C@@H](NC(=O)c3ccccc3)[C@H](O)[C@@H]2O)cc1 | -1.54% | -3.74% | -2.07% | -7.28% | 8.1% |
| CC1CCCCN1CCCNC(=O)Cn1ccc2cc(S(=O)(=O)N3CCCCC3)ccc21 (stereo not given) | 4.18% | 0.083% | -44.7% | 1.45% | -1.24% |
| CCCNC(=O)c1ncn2c1C(=O)N(C1CC1)C(C)(C(=O)NCc1cccc(C)c1)C2 (stereo not given) | 0.26% | 0% | 3.33% | 0.475% | 1.53% |
| O=C(c1ccccc1F)N1CCn2ncc(C(=O)N3CCOCC3)c2C1 | -0.065% | 0.775% | 0.947% | 0.683% | 1.51% |
| CCCC1c2ccc(C)n2CCN1C(=O)Nc1cc(C)ccc1OC (stereo not given) | -3.09% | 3.49% | -9.91% | 0.619% | -6.37% |
| O=C(Cn1nc2n(Cc3ccc(F)cc3)c(=O)c3ccccc3n2c1=O)Nc1ccc(Cl)cc1 | 4.7% | 0% | 11% | 3.15% | 3.15% |
| CCOc1ccccc1CN1C(=O)c2ccc(-c3ccccc3)n2CC1(C)C(=O)NC1CCCCC1 (stereo not given) | 3.71% | 0.738% | 1.61% | 2.42% | 0.622% |
